Laboratory results: the supplement of paper PMC4166925
± gives the standard deviation of the averaged measurements. Whole data set: some 33,000 sequences, median “E-score (dimensionless, -0.5 to 0.5)” near -0.046, cut for the highest 2% near 0.36. The list shows a part of the results.

Test system: T1, SpTbr T-box DNA-binding domain (GST fusion)
T1 sequence: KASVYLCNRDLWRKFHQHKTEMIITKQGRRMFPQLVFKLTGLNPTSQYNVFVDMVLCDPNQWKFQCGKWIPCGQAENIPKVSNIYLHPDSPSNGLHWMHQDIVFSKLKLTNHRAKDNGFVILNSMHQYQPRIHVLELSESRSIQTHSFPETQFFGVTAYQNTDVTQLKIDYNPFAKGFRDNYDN
Assay: PBM E-score of 8-mer (E-score (dimensionless, -0.5 to 0.5)); Tbr is Tbrain of the sea star Patiria miniata (Pm) or the sea urchin Strongylocentrotus purpuratus (Sp); higher = stronger binding preference; most listed sequences are background and not binding sites
Settings: the construct has about 5 more residues each side
Method in brief: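 Universal Agilent oligonucleotide arrays, made double-stranded by primer extension, were incubated with 200 nM GST-fused Tbr T-box DNA-binding domain in PBS (pH 7.5). The protein was expressed in BL21 E. coli at 20 °C and purified by glutathione affinity chromatography. After scanning and quantification, the Universal PBM Analysis Suite assigned an enrichment E-score to each ungapped 8-mer, averaged over duplicate arrays.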

| Sequence | PBM E-score of 8-mer |
| --- | --- |
| CAACCCTA | 0.128 ± 0.086 |
| ATAGTCGC | 0.168 ± 0.028 |
| ATGTGAGA | 0.414 ± 0.018 |
| CGTGGCTC | -0.00485 ± 0.12 |
| ATTACTCG | 0.0185 ± 0.057 |
| ATACTGTG | 0.117 ± 0.056 |
| ATCATTAC | -0.0536 ± 0.085 |
| CCGCATTC | -0.08 ± 0.036 |
| ACCACTCA | 0.139 ± 0.036 |
| CCTCGCCC | 0.0378 ± 0.071 |
| AAGCCAGC | -0.161 ± 0.018 |
| CTTCTATC | -0.157 ± 0.054 |
| CCGGCCTA | -0.0607 ± 0.018 |
| GATTAGAC | -0.114 ± 0.01 |
| GCACATGC | 0.115 ± 0.064 |
| GGTGCTAC | 0.42 ± 0.007 |
| CCGGATTA | -0.116 ± 0.0066 |
| AGCGGACC | -0.0382 ± 0.12 |
| ATACTCAC | 0.059 ± 0.036 |
| CGTACATC | -0.1577 ± 0.0014 |
| ATGAGGGG | -0.15 ± 0.014 |
| GAGTAAGC | -0.0325 ± 0.03 |

| Sequence | PBM E-score of 8-mer |
| --- | --- |
| CTGTCGCA | 0.235 ± 0.054 |
| ATAACGGC | 0.00512 ± 0.028 |
| ATTGCTTA | -0.0969 ± 0.034 |
| ACCAGAAT | 0.0132 ± 0.099 |
| CATAAACG | -0.0772 ± 0.033 |
| ACACATCG | 0.394 ± 0.014 |
| GGCGTCAA | 0.412 ± 0.018 |
| ATTTTGTG | 0.0651 ± 0.12 |
| ACCCGCAT | 0.0167 ± 0.085 |
| CCACAGCG | 0.00125 ± 0.027 |
| GCCCGCCA | 0.00722 ± 0.034 |
| CAGCTTAG | -0.103 ± 0.043 |
| ATTTGCAC | 0.239 ± 0.043 |
| CGCCCCAG | -0.0657 ± 0.038 |
| CCTTGATC | 0.0095 ± 0.041 |
| ACATGAAG | 0.0963 ± 0.011 |
| CACAATGG | -0.143 ± 0.003 |
| CATCATTA | -0.0886 ± 0.042 |
| TTATATAA | -0.136 ± 0.014 |
| GAGCATGC | -0.143 ± 0.032 |
| AGCGGCGG | 0.0106 ± 0.091 |
| AGCATATA | -0.272 ± 0.061 |

| Sequence | PBM E-score of 8-mer |
| --- | --- |
| GGGTCAGA | -0.266 ± 0.05 |
| CTCTACAA | 0.114 ± 0.0044 |
| AGATACAA | -0.189 ± 0.07 |
| CCAACTGC | 0.0365 ± 0.11 |
| ACAGCGGA | -0.0534 ± 0.11 |
| AAGCGGGA | -0.132 ± 0.011 |
| CACCGAGA | -0.05 ± 0.023 |
| AACCGCAC | 0.177 ± 0.0074 |
| AGGGAATA | -0.112 ± 0.046 |
| TATATATA | 0.012 ± 0.058 |
| ATGCATGG | -0.151 ± 0.12 |
| AGACCTCC | -0.3619 ± 0.0028 |
| ACGTACGC | 0.107 ± 0.05 |
| CAAGCATC | -0.11 ± 0.078 |
| ATCTGGTA | -0.262 ± 0.038 |
| GTAAGTTA | -0.165 ± 0.12 |
| CGTTATTA | -0.0775 ± 0.1 |
| ACAAGGAC | -0.173 ± 0.021 |
| CTCGTCTC | 0.0515 ± 0.0079 |
| CTCTTCAG | -0.161 ± 0.062 |
| GCCGTTTA | 0.0646 ± 0.08 |
| CCTACGGA | -0.25 ± 0.0069 |

| Sequence | PBM E-score of 8-mer |
| --- | --- |
| CGTTTGTA | 0.0192 ± 0.0019 |
| GAAGTGGC | 0.26 ± 0.012 |
| ATGTTCAC | 0.295 ± 0.058 |
| AGGCGCTG | 0.225 ± 0.018 |
| CCGACATC | -0.0547 ± 0.029 |
| TATCCGCA | 0.00769 ± 0.072 |
| GAGAATCA | -0.052 ± 0.024 |
| ATTCCAGA | -0.00543 ± 0.064 |
| CATGGGGA | -0.317 ± 0.054 |
| GATGTCAA | 0.197 ± 0.0064 |
| CATGCTCC | -0.0116 ± 0.078 |
| AGTGCGGG | 0.143 ± 0.0067 |
| AGAACAGA | -0.267 ± 0.041 |
| CTTTTGAC | 0.144 ± 0.025 |
| TGGAAAAA | -0.0445 ± 0.051 |
| CGACCAAG | -0.0565 ± 0.0009 |
| AGTACTAG | -0.27 ± 0.068 |
| CCTCAGGC | -0.167 ± 0.051 |
| CGATAAAA | 0.0615 ± 0.11 |
| ACCCTTAC | 0.0719 ± 0.021 |
